Experimental data published in the supplement of paper PMC3724861.
Some of the results follow.

system: T1, Caupolican (Caup) homeodomain DNA-binding domain; test: PBM E-score (8-mer, recovered from the published 9-mer minima) (E-score (dimensionless, -0.5 to 0.5)); Drosophila protein; higher = stronger relative binding preference, active = 0.31 or more
T1 sequence: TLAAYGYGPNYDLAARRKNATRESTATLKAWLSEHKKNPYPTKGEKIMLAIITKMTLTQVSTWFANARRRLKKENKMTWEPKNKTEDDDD
In short: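 Caup's homeodomain DNA-binding domain (residues 214-303) was produced by in vitro transcription and translation and applied at 100 nM to custom-designed protein binding microarrays. Each value is an enrichment score giving relative binding preference for a short DNA word; higher means stronger. Published 9-mer scores were the minimum of their two constituent 8-mer scores, and the 8-mer values were recovered from those minima. A cutoff of 0.31 marks candidate binding sequences.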

Sequence	PBM E-score
CAATTCGC	inactive: 0.0736
ACCTTTAT	inactive: 0.0326
GTAAGAGA	inactive: 0.016
AGGAGACA	inactive: 0.111
CTGGGTTC	inactive: -0.0931
GCGTACCC	inactive: -0.114
CTTCTCAA	inactive: -0.0891
CACTGCGA	inactive: -0.104
ACGTGCTA	inactive: 0.0513
ATCCACGC	inactive: -0.102
GTTTTACA	inactive: 0.183
CTCTATTC	inactive: 0.00353
GTAATGAC	inactive: 0.17
CTGTCGTA	inactive: 0.124
GCCCTCAA	inactive: -0.171
ACCGGAGA	≥ -0.0601
GGTCCCTA	inactive: -0.114
CGATATAC	inactive: 0.0606
AACCCGAG	inactive: -0.0937
CGTAGAGA	inactive: -0.0673
CTCGCCGC	inactive: -0.154
GGAAGCCC	inactive: -0.265
ATCCAGGC	inactive: -0.165
CTCTAGCC	inactive: -0.102
CCGAAGAC	inactive: -0.107

Sequence	PBM E-score
CGCGTTGA	inactive: -0.0594
ACAATTCT	inactive: 0.142
GCTGTAGA	inactive: 0.0556
AAGTGCTC	inactive: -0.121
CTCAGTGA	inactive: -0.051
ATGTGAAA	inactive: 0.0895
ACCACCAA	inactive: -0.00096
CAGTAGTA	inactive: 0.175
TCGCATCA	inactive: -0.0286
GAGTATCA	inactive: 0.0538
ATGATCAG	inactive: 0.0578
GGGATCTA	inactive: -0.0922
GGGTTCAC	inactive: -0.1
CATAGACC	inactive: -0.06
GAGTATCC	inactive: -0.0506
ATGCTGTA	inactive: 0.201
CAGCCCTA	inactive: -0.0527
AATATATA	inactive: 0.253
ATTTGTAA	inactive: 0.277
ATAGCCGA	≥ 0.0053
TCGTCCCA	inactive: 0.00693
AACGCAGT	inactive: -0.0614
CTAACAGC	inactive: 0.0198
GAACCTTA	inactive: -0.108
ATTTCGTG	inactive: 0.141

Sequence	PBM E-score
AGGACCCG	inactive: -0.197
ATGGTTGG	inactive: -0.0636
AGTAATGG	inactive: 0.0896
GGGGAGGA	inactive: -0.324
AGCTTCCT	inactive: -0.0709
AATCGGAA	inactive: 0.0527
AAAACCGT	≥ 0.0731
GCAGGGAA	inactive: -0.0579
CTTGTAAA	active: 0.365
CGCCAACA	inactive: 0.00728
CTTCTACA	inactive: 0.198
CCGTCCGC	inactive: -0.209
GATGAGAA	inactive: 0.0364
CAGGGTGC	inactive: -0.238
AAGCAACA	inactive: 0.217
AGTTCGCG	inactive: -0.103
ATAAAGCG	inactive: 0.0105
CGTACGTC	inactive: 0.0832
AAATAGAC	inactive: 0.116
AGAGGTTG	inactive: -0.0274
GTACCATA	inactive: 0.208
GTCCAAAC	inactive: -0.0103
ACTCACAC	inactive: 0.00323
AACAGAGG	inactive: 0.0242
GCGAGGAA	inactive: -0.104

Sequence	PBM E-score
GGCTCCAC	inactive: -0.186
AGTCAAGG	inactive: -0.0408
ACACTTAC	inactive: 0.195
GCTCGAAC	inactive: 0.0469
ACGCAATA	≥ 0.0579
GATGGTCC	inactive: -0.0416
CCAGGACA	inactive: 0.14
TATGTTGA	inactive: 0.288
GACGTCCA	inactive: -0.0398
ACGTTCTG	inactive: -0.0375
ACATTGCA	inactive: 0.189
CATGAAGC	inactive: 0.0221
AACGCCCG	inactive: -0.108
CGGTTAGA	inactive: -0.00782
CCCCGAGG	inactive: -0.218
AAACTTGT	inactive: 0.265
CGATCTCA	inactive: 0.0293
GGGCCGAA	inactive: -0.26
CTAGAACC	inactive: -0.0482
ATCCGCAT	inactive: 0.0355
TGAGAGCA	inactive: -0.0548
ACAGCGAA	≥ 0.0905
ATCATTAA	inactive: 0.101
CCAGTTGC	inactive: -0.145
TGCCCCCA	inactive: -0.258

Sequence	PBM E-score
AACGAACC	inactive: 0.0454
AACCAATA	inactive: 0.0905
AAGTGTTG	inactive: 0.206
CCCCTCCG	inactive: -0.158
CCCCGGTC	inactive: -0.256
ACGAAGAC	inactive: -0.0171
CGCTCTGA	inactive: -0.1
AATCAATA	inactive: 0.16
CATTGGGA	inactive: 0.00347
GATCCATC	inactive: 0.00651
CATCAGCA	inactive: 0.0725
CGTGGCTA	inactive: -0.14
ACCGTTCG	inactive: -0.0339
CGCCGAGA	inactive: -0.224
CGATACAC	inactive: 0.16
CTTCGTCA	inactive: 0.0577
CCCGCCAC	inactive: -0.129
AAAGGGCG	inactive: -0.0884
ACACTGAC	inactive: 0.114
ATTTGAAC	inactive: 0.0964
ATAAATCC	inactive: 0.0377
CCCGATTC	inactive: -0.0132
AACAAAGT	≥ 0.225
GATCTAAC	inactive: 0.0364
AATTTTCT	inactive: 0.0254

Sequence	PBM E-score
AACAGTCT	inactive: 0.0513
ACACGGGC	inactive: 0.0908
AGTACTCC	inactive: -0.0186
CGTCAGCA	inactive: -0.0975
AATATATG	inactive: 0.253
AAATCTAC	inactive: 0.143
ACGGGTGC	inactive: -0.104
GCTGCCTA	inactive: -0.157
CGGTAGTA	inactive: 0.166
GCTTGTGA	inactive: -0.02
CCAGTCTA	inactive: -0.115
CGCCTTTA	inactive: -0.145
CAATTATA	inactive: 0.154
CGGCACGA	inactive: -0.057
ACACCTAG	inactive: 0.0969
CATGTTCC	active: 0.409
GCGTGCTA	inactive: -0.0711
CTGCTCTA	inactive: -0.0278
ATAGATGG	inactive: -0.0161
ACCTGTCA	inactive: 0.136
CACCTATG	inactive: -0.0452
ATGTTCGC	inactive: 0.256
AAAGCGGT	inactive: -0.102
AGGTCCAC	inactive: -0.158
CAAGAGGC	inactive: -0.118

Sequence	PBM E-score
CCTTCGAC	inactive: -0.0335
GATCTCTA	inactive: -0.0307
CACGCTGC	inactive: -0.0283
ACTTAACG	inactive: 0.0465
CCTGATAC	inactive: 0.14
ACAAGCGA	inactive: 0.243
GAGCGGCC	inactive: -0.254
CCACTGCG	inactive: -0.194
ATCTCGTC	inactive: 0.004
AGCCCAAG	inactive: -0.198
AAAATAGT	inactive: 0.0994
AAATCTGT	inactive: 0.125
CAGTGTTC	inactive: 0.135
GACTGGAA	inactive: -0.102
AGTAAGAT	inactive: 0.145
CTCCTGGC	inactive: -0.163
AACTCTCA	inactive: -0.00437
AAATAGTG	inactive: 0.159
CTTACGGA	inactive: -0.0241
CGGAGAAG	inactive: -0.205
CCCACAAA	inactive: -0.0279
GGGTTGGA	inactive: -0.185
CATCAAAC	inactive: 0.143
CAGTGGGA	inactive: -0.0845
AGTCTTCG	inactive: -0.0737

Sequence	PBM E-score
GGGAACGA	inactive: -0.125
AATCGGAT	inactive: 0.114
CCAGTCGA	inactive: -0.0529
CAAAGGTC	inactive: -0.189
AGTACCCG	inactive: 0.0946
ACGGTTGA	inactive: 0.0784
ACAGACCT	inactive: 0.0819
GATCTACA	inactive: 0.145
ATCGAGCG	inactive: -0.0641
TCTACCAA	inactive: 0.0764
AGGGCAGA	inactive: -0.12
ACCCTGGA	inactive: -0.159
AATGCAAT	inactive: 0.0302
GGTTGTTA	active: 0.324
CGAACCAG	inactive: 0.02
CCCTGTCA	inactive: 0.129
GCGAGTAA	inactive: -0.0555
TCCCCAGA	inactive: -0.171
ATAGACCA	inactive: 0.00047
ATCACCGA	inactive: 0.117
TAAGTATA	inactive: 0.168
AATTCCCT	inactive: 0.0285
GGCACCAC	inactive: -0.122
CATTGCGC	inactive: -0.0634
AACTGTGC	inactive: 0.00366

Sequence	PBM E-score
CAAGCTCC	inactive: -0.113
ACCAGTGC	inactive: -0.019
CGGTAAGA	inactive: -0.116
AAGTGAGT	inactive: 0.0344
CCCACGGG	inactive: -0.26
TCAGAACA	inactive: 0.245
AAGGAAGG	inactive: 0.00353
GCTGTCAA	inactive: 0.057
CACTAGTC	inactive: 0.129
GTGCACTA	inactive: 0.0884
AGTGAATA	inactive: 0.135
GGCGCAAC	inactive: -0.19
AAAGTAAC	inactive: 0.0893
ACCTCTAG	inactive: -0.0769
AGTAATAC	inactive: 0.146
CGGCTGGA	inactive: -0.226
ACGCCCAA	inactive: -0.0625
AGTACATC	active: 0.342
ACAAAGTA	inactive: 0.188
ATATTGCC	inactive: 0.0197
AACACACC	inactive: 0.188
AGGCGCCC	inactive: -0.312
CGACAGTA	inactive: -0.0427
